This is an account of results in patent US20230293439A1, “SPRAY DRYING OF SUPERSATURATED SOLUTIONS OF API WITH ACETIC ACID” (BEND RESEARCH, INC., priority 2020, published 2023).

This data set can be described thus: Metastability of the supersaturated nilotinib solution from the Solvent-Shift route (visual check for precipitation). The note with it: Example 3: 2.19 wt % nilotinib in 85.0:9.0:6.0 (w:w:w) methanol:acetic acid:PVP-VA64, 40° C.

On to `Cc1cn(-c2cc(NC(=O)c3ccc(C)c(Nc4nccc(-c5cccnc5)n4)c3)cc(C(F)(F)F)c2)cn1` [Nilotinib], for which the “Time the supersaturated solution remained visibly clear without any precipitation of solid” value is “at least 2 h”.
